From the supplement of paper PMC9588766
Counter-ions that a name gives are not always drawn. Over roughly 1,900 compounds, “cell viability of compound + 1 nM pemigatinib relative to pemigatinib-only (DMSO) wells” has its median near 0.95; the lowest 2% begin near 0.22. This is one part of the list.

What follows are compounds tested on PDC-DUC18828 (assay: cell viability of compound + 1 nM pemigatinib relative to pemigatinib-only (DMSO) wells (fraction); PDC-DUC18828 is a patient-derived cholangiocarcinoma cell line; higher = less growth inhibition). Conditions: first compound 1 µM; pemigatinib concentration 1 nM; 72 h.
Experimental: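 Selleck Bioactive library screen in the patient-derived FGFR2 fusion-positive ICC cell line PDC-DUC18828 (500 cells/well). Each compound was tested at 1 uM with 1 nM pemigatinib, in triplicate, for 72 h. Viability was read by CellTiter-Glo and normalised to plate DMSO controls. Value is the paper's averaged normalised viability.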

| SMILES | cell viability |
| --- | --- |
| Cc1cc(Nc2cc(N3CCN(C)CC3)nc(/C=C/c3ccccc3)n2)n[nH]1 + CCN1C(=O)N(c2c(F)c(OC)cc(OC)c2F)Cc2cnc3[nH]c(CN4CCOCC4)cc3c21 [pemigatinib] | 0.447 |
| COc1ccc(C2CC(c3ccccc3)=NN2c2ccc(S(N)(=O)=O)cc2)cc1 (stereo not drawn) + CCN1C(=O)N(c2c(F)c(OC)cc(OC)c2F)Cc2cnc3[nH]c(CN4CCOCC4)cc3c21 [pemigatinib] | 0.978 |
| Cc1cc(-c2ccc(CC(=O)Nc3ccc(-c4cccnc4)cc3)cc2)ccn1 + CCN1C(=O)N(c2c(F)c(OC)cc(OC)c2F)Cc2cnc3[nH]c(CN4CCOCC4)cc3c21 [pemigatinib] | 1.03 |
| OC[C@H]1O[C@@H](c2ccc(Cl)c(Cc3ccc(O[C@H]4CCOC4)cc3)c2)[C@H](O)[C@@H](O)[C@@H]1O + CCN1C(=O)N(c2c(F)c(OC)cc(OC)c2F)Cc2cnc3[nH]c(CN4CCOCC4)cc3c21 [pemigatinib] | 0.972 |
| CN(C)c1cccc(-c2c3c(=O)n(-c4ccccc4Cl)[nH]c3cc(=O)n2C)c1 + CCN1C(=O)N(c2c(F)c(OC)cc(OC)c2F)Cc2cnc3[nH]c(CN4CCOCC4)cc3c21 [pemigatinib] | 0.966 |
| COC(=O)C1=C(C)NC(C)=C(C(=O)OCCN(C)Cc2ccccc2)C1c1cccc([N+](=O)[O-])c1 (stereo not drawn) [Nicardipine HCl] + CCN1C(=O)N(c2c(F)c(OC)cc(OC)c2F)Cc2cnc3[nH]c(CN4CCOCC4)cc3c21 [pemigatinib] | 1 |
| Cc1nc(C#Cc2ccnc(Cl)c2)c(C)n1-c1ccc(OC(F)(F)F)cc1 + CCN1C(=O)N(c2c(F)c(OC)cc(OC)c2F)Cc2cnc3[nH]c(CN4CCOCC4)cc3c21 [pemigatinib] | 0.955 |
| O=C1[C@H](CC[C@H](O)c2ccc(F)cc2)[C@@H](c2ccc(O)cc2)N1c1ccc(F)cc1 [Ezetimibe] + CCN1C(=O)N(c2c(F)c(OC)cc(OC)c2F)Cc2cnc3[nH]c(CN4CCOCC4)cc3c21 [pemigatinib] | 0.991 |
| c1cc(-c2cnn3cc(-c4ccc(OCCN5CCCCC5)cc4)cnc23)ccn1 [Dorsomorphin (Compound C)] + CCN1C(=O)N(c2c(F)c(OC)cc(OC)c2F)Cc2cnc3[nH]c(CN4CCOCC4)cc3c21 [pemigatinib] | 0.931 |
| CN1CCC(NC(=O)c2cc(-c3c(O)cc(O)cc3Oc3ccc([N+](=O)[O-])cc3)on2)CC1 + CCN1C(=O)N(c2c(F)c(OC)cc(OC)c2F)Cc2cnc3[nH]c(CN4CCOCC4)cc3c21 [pemigatinib] | 0.331 |
| Cc1cnc(C(=O)NCCc2ccc(S(=O)(=O)NC(=O)NC3CCCCC3)cc2)cn1 [Glipizide] + CCN1C(=O)N(c2c(F)c(OC)cc(OC)c2F)Cc2cnc3[nH]c(CN4CCOCC4)cc3c21 [pemigatinib] | 1.09 |
| Cc1cc(-c2ncc(CC(=O)Nc3ccc(-c4cnccn4)cn3)cc2C)ccn1 + CCN1C(=O)N(c2c(F)c(OC)cc(OC)c2F)Cc2cnc3[nH]c(CN4CCOCC4)cc3c21 [pemigatinib] | 0.959 |
| Nc1ncnc2c1C(=O)N(c1ccc([C@H]3CC[C@H](CC(=O)O)CC3)cc1)CCO2 + CCN1C(=O)N(c2c(F)c(OC)cc(OC)c2F)Cc2cnc3[nH]c(CN4CCOCC4)cc3c21 [pemigatinib] | 1.02 |
| CCCCCOC(=O)Nc1nc(=O)n([C@@H]2O[C@H](C)[C@@H](O)[C@H]2O)cc1F [Capecitabine] + CCN1C(=O)N(c2c(F)c(OC)cc(OC)c2F)Cc2cnc3[nH]c(CN4CCOCC4)cc3c21 [pemigatinib] | 1.07 |
| CCCCNc1ccc(C(=O)OCCN(C)C)cc1 [Tetracaine HCl] + CCN1C(=O)N(c2c(F)c(OC)cc(OC)c2F)Cc2cnc3[nH]c(CN4CCOCC4)cc3c21 [pemigatinib] | 0.934 |
| CCN(CC)CCOc1ccc(C(=C(Cl)c2ccccc2)c2ccccc2)cc1 [Clomifene citrate] + CCN1C(=O)N(c2c(F)c(OC)cc(OC)c2F)Cc2cnc3[nH]c(CN4CCOCC4)cc3c21 [pemigatinib] | 0.886 |
| COc1ncc(-c2ccc3nccc(-c4ccnnc4)c3c2)cc1NS(=O)(=O)c1ccc(F)cc1F + CCN1C(=O)N(c2c(F)c(OC)cc(OC)c2F)Cc2cnc3[nH]c(CN4CCOCC4)cc3c21 [pemigatinib] | 0.201 |
| COc1cc2ncnc(Oc3ccc(CC(=O)Nc4cnn(C(C)C)c4)cc3)c2cc1OC + CCN1C(=O)N(c2c(F)c(OC)cc(OC)c2F)Cc2cnc3[nH]c(CN4CCOCC4)cc3c21 [pemigatinib] | 0.932 |
| CN1CCC(=C2c3ccccc3CCc3sccc32)CC1 [Pizotifen Malate] + CCN1C(=O)N(c2c(F)c(OC)cc(OC)c2F)Cc2cnc3[nH]c(CN4CCOCC4)cc3c21 [pemigatinib] | 0.949 |

| SMILES | cell viability |
| --- | --- |
| O=C(O)c1cc(I)ccc1NC(=O)[C@H](Cc1ccccc1)NCc1ccccc1 + CCN1C(=O)N(c2c(F)c(OC)cc(OC)c2F)Cc2cnc3[nH]c(CN4CCOCC4)cc3c21 [pemigatinib] | 1.06 |
| COc1ccc(C2=N[C@H](c3ccc(Cl)cc3)[C@H](c3ccc(Cl)cc3)N2C(=O)N2CCNC(=O)C2)c(OC(C)C)c1 [Nutlin-3b] + CCN1C(=O)N(c2c(F)c(OC)cc(OC)c2F)Cc2cnc3[nH]c(CN4CCOCC4)cc3c21 [pemigatinib] | 1 |
| Cc1cnc(C(=O)O)c[n+]1[O-] [Acipimox] + CCN1C(=O)N(c2c(F)c(OC)cc(OC)c2F)Cc2cnc3[nH]c(CN4CCOCC4)cc3c21 [pemigatinib] | 0.956 |
| O=C(c1cncc(Br)c1)N1CCC(N2CCCC2)CC1 + CCN1C(=O)N(c2c(F)c(OC)cc(OC)c2F)Cc2cnc3[nH]c(CN4CCOCC4)cc3c21 [pemigatinib] | 0.942 |
| O=C(Nc1ccc([N+](=O)[O-])cc1O)Nc1ccccc1Br + CCN1C(=O)N(c2c(F)c(OC)cc(OC)c2F)Cc2cnc3[nH]c(CN4CCOCC4)cc3c21 [pemigatinib] | 0.591 |
| O=c1c(O)c(-c2ccc(O)c(O)c2)oc2cc(O)cc(O)c12 [Quercetin Dihydrate] + CCN1C(=O)N(c2c(F)c(OC)cc(OC)c2F)Cc2cnc3[nH]c(CN4CCOCC4)cc3c21 [pemigatinib] | 0.896 |
| O=c1c(O)c(-c2ccc(O)c(O)c2)oc2cc(O)cc(O)c12 [Quercetin] + CCN1C(=O)N(c2c(F)c(OC)cc(OC)c2F)Cc2cnc3[nH]c(CN4CCOCC4)cc3c21 [pemigatinib] | 0.944 |
| COc1ccc(CN2CCN(C(c3ccc(F)cc3)c3ccc(F)cc3)CC2)c(OC)c1OC [Lomerizine HCl] + CCN1C(=O)N(c2c(F)c(OC)cc(OC)c2F)Cc2cnc3[nH]c(CN4CCOCC4)cc3c21 [pemigatinib] | 0.932 |
| CC(C)Cc1ccc(C(C)C(=O)O)cc1 (stereo not drawn) [Ibuprofen] + CCN1C(=O)N(c2c(F)c(OC)cc(OC)c2F)Cc2cnc3[nH]c(CN4CCOCC4)cc3c21 [pemigatinib] | 1.06 |
| CCN1CCN(Cc2ccc(Nc3ncc(F)c(-c4cc(F)c5nc(C)n(C(C)C)c5c4)n3)nc2)CC1 + CCN1C(=O)N(c2c(F)c(OC)cc(OC)c2F)Cc2cnc3[nH]c(CN4CCOCC4)cc3c21 [pemigatinib] | 0.633 |
| COCCc1ccc(OCC(O)CNC(C)C)cc1 (stereo not drawn) [Metoprolol Tartrate] + CCN1C(=O)N(c2c(F)c(OC)cc(OC)c2F)Cc2cnc3[nH]c(CN4CCOCC4)cc3c21 [pemigatinib] | 0.877 |
| COc1cc2ncnc(Nc3ccc(F)c(Cl)c3)c2cc1OCCCN1CCOCC1 [Gefitinib (ZD1839)] + CCN1C(=O)N(c2c(F)c(OC)cc(OC)c2F)Cc2cnc3[nH]c(CN4CCOCC4)cc3c21 [pemigatinib] | 0.847 |
| CN1CCN(c2nc(C3=C(c4c[nH]c5ccccc45)C(=O)NC3=O)c3ccccc3n2)CC1 [Sotrastaurin] + CCN1C(=O)N(c2c(F)c(OC)cc(OC)c2F)Cc2cnc3[nH]c(CN4CCOCC4)cc3c21 [pemigatinib] | 0.958 |
| CC(C(=O)O)c1ccc(C(=O)c2cccs2)cc1 (stereo not drawn) [Suprofen] + CCN1C(=O)N(c2c(F)c(OC)cc(OC)c2F)Cc2cnc3[nH]c(CN4CCOCC4)cc3c21 [pemigatinib] | 0.976 |
| CC(C)[C@H](N)C(=O)OCC(CO)OCn1cnc2c(=O)[nH]c(N)nc21 (stereo partly drawn) [Valganciclovir HCl] + CCN1C(=O)N(c2c(F)c(OC)cc(OC)c2F)Cc2cnc3[nH]c(CN4CCOCC4)cc3c21 [pemigatinib] | 0.924 |
| O=C(c1ccc(OCCCc2c[nH]cn2)cc1)C1CC1 [Ciproxifan] + CCN1C(=O)N(c2c(F)c(OC)cc(OC)c2F)Cc2cnc3[nH]c(CN4CCOCC4)cc3c21 [pemigatinib] | 0.88 |
| CCOc1ccc(NC(C)=O)cc1 [Phenacetin] + CCN1C(=O)N(c2c(F)c(OC)cc(OC)c2F)Cc2cnc3[nH]c(CN4CCOCC4)cc3c21 [pemigatinib] | 1.06 |
| CN1CCC[C@@H]1CCO[C@](C)(c1ccccc1)c1ccc(Cl)cc1 [Clemastine Fumarate] + CCN1C(=O)N(c2c(F)c(OC)cc(OC)c2F)Cc2cnc3[nH]c(CN4CCOCC4)cc3c21 [pemigatinib] | 1.01 |
| CC[C@@H]([C@H](C)O)n1ncn(-c2ccc(N3CCN(c4ccc(OC[C@@H]5CO[C@@](Cn6cncn6)(c6ccc(F)cc6F)C5)cc4)CC3)cc2)c1=O [Posaconazole] + CCN1C(=O)N(c2c(F)c(OC)cc(OC)c2F)Cc2cnc3[nH]c(CN4CCOCC4)cc3c21 [pemigatinib] | 0.861 |
